Measurements as given in a compilation of properties of binary mixtures (doi:10.1016/j.molliq.2008.06.014).
The densities may have been worked out from excess volumes.

Experiment: xn = mol fraction of the nth substance listed
Conditions: 101 kPa

CN(C)CCO + CCCC[n+]1ccn(C)c1.F[P-](F)(F)(F)(F)F
mass density [kg/m3]
Conditions	x1 = 0.1221	x1 = 0.2143	x1 = 0.3182	x1 = 0.4405	x1 = 0.5166	x1 = 0.605	x1 = 0.709	x1 = 0.8063	x1 = 0.9128	x1 = 1
288.15 K	1347.9	1324.3	–	1252.8	–	1181.7	–	–	978.6	891.7
293.15 K	1343.5	–	1289.5	–	–	1177	1120.9	–	974	887.5
298.15 K	–	1315.4	1285	1243.7	1213.2	1172.6	1116.5	1054	–	–
303.15 K	1335	1311.4	1280.9	–	1209.4	1168.9	1112.8	–	966.6	879.3
308.15 K	1330.9	1307	1276.4	–	1204.4	1163.5	1107.3	1044.8	960.7	873.4
313.15 K	1325.9	1301.9	1271.1	1229.3	1198.6	–	1101.2	1038.5	954.2	869.2
318.15 K	1322	1298	1267.5	1225.8	1195.2	1154.4	1098.2	1035.7	951.6	865.7
323.15 K	1318	1293.9	1263.3	1221.5	–	1149.9	1093.5	1031	946.8	–

NCCO + CCCC[n+]1ccn(C)c1.F[P-](F)(F)(F)(F)F
x1 = 1
Conditions	mass density [kg/m3]
298.15 K	1012
303.15 K	1008.2
308.15 K	1005.2
313.15 K	1001
323.15 K	994.1

CCCC[n+]1ccn(C)c1.F[P-](F)(F)(F)(F)F + CN(C)CCO
x2 = 0
Conditions	mass density [kg/m3]
288.15 K	1376
293.15 K	1371.7
298.15 K	1367.4
303.15 K	1363.3
308.15 K	1359.5
313.15 K	1354.9
318.15 K	1351
323.15 K	1347.3

CCCC[n+]1ccn(C)c1.F[P-](F)(F)(F)(F)F + NCCO
mass density [kg/m3]
Conditions	x2 = 0	x2 = 0.1185	x2 = 0.2113	x2 = 0.3052	x2 = 0.4282	x2 = 0.4918	x2 = 0.6161	x2 = 0.6984	x2 = 0.8022	x2 = 0.9028
288.15 K	1376	1361.5	1348.6	1332.8	1309.4	1295	1260.6	1231.4	–	–
293.15 K	1371.7	1357.1	1344.2	–	1305	1290.6	1256.2	1227	1178.4	1111.6
298.15 K	–	1352.8	–	–	1300.7	1286.3	1252	1222.8	–	1107.6
303.15 K	1363.3	1348.6	1335.7	1320	1296.5	1282.1	1247.8	–	1170.2	1103.5
308.15 K	1359.5	1344.7	1331.9	1316.2	–	1278.4	1244.2	1215	1166.7	1100.1
313.15 K	1354.9	1340.1	1327.2	–	1288.1	1273.7	1239.6	1210.4	1162.1	1095.6
318.15 K	1351	1336.1	1323.2	–	–	–	1235.4	1206.2	1157.9	1091.3
323.15 K	–	1332.3	1319.4	–	1280.4	1266	1231.9	1202.7	1154.5	1088.1
